Source: the supplement of paper PMC11417369
This is one part of the list.

These sequences were tested on PfHDP1 homeodomain (GST-tagged) (assay: gcPBM binding intensity (ln(normalized median fluorescence intensity)); higher = stronger DNA binding).
In short: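 Plasmodium falciparum DNA-binding domains carrying a GST tag were expressed in E. coli and applied for 1 h, at about 25 μg on average, to an Agilent 4 × 180k array. The array held primer-extended double-stranded 36-bp intergenic genomic probes together with negative controls, and binding took place in 1× PBS with 1% milk, 0.2 mg/ml BSA, 0.5% salmon testes DNA and 0.03% Triton X-100. An Alexa488 anti-GST antibody detected bound protein, and the array was scanned at 488 nm. Binding intensity is taken as the highest Masliner-normalised natural-log median intensity across replicate spots of either probe orientation.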

Sequence	gcPBM binding intensity (ln)
ATATAATATATATACAAACACACAATTGTGTCCACA [CACACA_site1748]	6.97
TACATAACTTTAATCACACACAAACAAACACATACA [CACACA_site6235]	7.06
AAATATACATATATATGTACATATAAATATATTTTA [XGTACX_site5266]	6.27
AACCTCATGGACATATGTACACATATACAATTATTT [XGTACX_site6533]	7.04
TTATCTTACATATATCATTAAATCATATAACAAAAA [XGTACX_negctrl_site517]	6.35
TTATGTATTTTAAATGGTTTTATTATAAAGTTTAAT [CACACA_negctrl_site1470]	6.17
CCTTTATAATTGGAAACACACATATAAAGTATATAT [CACACA_site3900]	6.4
GTTATATTTAAAATAGTGCAATAAAAATAATAATAT	9.3
CACAAATATACAAATACACACAAATATACGCATATA [CACACA_site2384]	6.82
GAATTTTAAATAAACATATAAACAGAAAAAAAAAAA [TGCATGCA_negctrl_site149]	6.49
TAGTTTTCTTAAAGATGTACTTATTAAAAATAAACT [XGTACX_site1001]	5.72
TATAGATAAATTATTTGTACTTATAAAATTATTATA [XGTACX_site2870]	5.89
AATGATTGATTTTATTGTACGTACTCGGAATATGGT [XGTACX_site4976]	6.81
GTTCGAAGTATAATTTGTACATATAAAATGGTTCCC [XGTACX_site382]	6.44
ATATGTATTTATATATGTTTGAATTTTTTTTTTTTT [CACACA_negctrl_site5]	5.97
GAATAAATAAATAAATGTACATATATATTTATTTAT [XGTACX_site243]	6.23
ATTTGATCAACAAAACGTACACATATTTTCATGTGT [XGTACX_site447]	6.47
ATATAGTAAAATTATACACACATGAATTTTCCCATG [CACACA_site1770]	6.65
GGGAATTATGAAAAAAGTACAGAACAAAAGTAAAAG [XGTACX_site2861]	7.1

Sequence	gcPBM binding intensity (ln)
CATATATATATATATACACACACACCGTCCGTGTTA [CACACA_site8975]	7.23
ATTACATGATATATCACACACACATATAAATATATA [CACACA_site2830]	7.13
TACAAAAATGAAAAAAGTACATATCATTTAATATAA [XGTACX_site8066]	6.3
TTTTTTTTTTTTTTTTGTACTCATAAAAATATATTA [XGTACX_site3458]	6.47
AAAATCACAAAACACACACACACAAAAAAAAAAAAA [CACACA_site1443]	6.32
TATCTGTATTTATATACACACATATTCTTTTTACAC [CACACA_site4798]	6.83
CACATATAGTTATATGCACACATCTTACACATATAT [CACACA_site3692]	10.2
CATGGGCAAATATTCTCACACATAAACATAAACATA [CACACA_site4597]	6.61
GTTTGAAGAACTATAAATGTATAAATAAAAGTTTAG [TGCATGCA_negctrl_site222]	6.19
ATGGTGCAACATTATGCACACCGTTAAATAACTAAT [CACACA_site9280]	11.7
AAAAAAGTAAAAAAAGCACACACGAAAAAAAATAAA [CACACA_site2233]	6.76
TGAGAAAATTAAAAGGTGCTCAGAAATTTTATATTA [GTGCAC_site9954]	5.95
TTTTCTTTTAATATTTTTAATAATTATATTTTGAAA [XGTACX_negctrl_site495]	6.26
AATACGACAAACAAATGTACAAATAAATATTCGCGT [XGTACX_site6427]	6.84
AAAAATGTAAAGTGCGTGCACAAAATATTTGGAAAA	9.43
AAATTACTAATGTGCACACATACTAACGTTTAAATA [CACACA_site3572]	11.3
AAAGTACAATCATAATCACACGTGTCTATTATATAC [CACACA_site8103]	6.37
TATATTTATTTATATGTATGCATGTCTGTATATGCT [TGCATGCA_site339]	6.23
CAAAGATAAAATGATGCACACAAAAGGGTGTAATAT [CACACA_site8499]	8.77

Sequence	gcPBM binding intensity (ln)
ACATGGTTTACACGTGCATGTGGATGACTGGACATT [TGCATGCA_site640]	8.4
AGGCCCTATGTTGTTACACACATAGAATGATACATC [CACACA_site1266]	6.39
AAAACAGTGACAACTCGTACTTATATTTTTTTTTGT [XGTACX_site4968]	6.24
TAAAATTTAAAATATACACACAAAAAGTTATTACAA [CACACA_site4080]	6.55
ATTAAATAATAATAATGTACGTATTATATTAATACA [XGTACX_site5439]	6.08
AAATTATTATGAAATGGAAAATGCATAAATTGTTTT [XGTACX_negctrl_site206]	6.39
CTCTTTAAAAATATGGGTACAAAAAAAAAAAAAATA [XGTACX_site6185]	6.37
ATTCTTTACTCATAAAATTATATTATATAAACTTTT [XGTACX_negctrl_site554]	6.97
AATTGTACGTAGGGGTATAAAAGCTTAAAAATGGGG [CACACA_negctrl_site1392]	7.22
AAAGCAAAAGGAAAATAACCAACCCTAATTAACACA [CACACA_negctrl_site530]	6.73
CCCTTTTTTTTTTAATGTACATATAATTATATATTT [XGTACX_site8568]	6.87
GGAAACCTTTTTTTTACACACAATATATTAAGACTT [CACACA_site4899]	6.44
GCAGCAGCATTTTCAGTGCATTATTATATTGTTCAT [GTGCAC_site9926]	9.62
GTTGCACAATGTTACACACACAATATATATCGTTAA [CACACA_site1275]	9.41
GTGTACTTTTAAATAGTGCATTTTACAATAATAAAA [GTGCAC_site9653]	8.01
GTAATAAAATGACATACATGCATTACAATTATGTAA [TGCATGCA_site220]	5.97
TATTATAATACTTATTGTACTTTTAGGTTAATTTAT [XGTACX_site995]	6.23
TAGTATTAAATATATACACACATATATACATATAGA [CACACA_site2154]	6.47
